# Laboratory results reported in PubChem BioAssay AID1345083 (National Center for Advancing Translational Sciences (NCATS), 2018).
# Out of some 94,000 compounds screened, about 6,200 (6.6%) were called active. The inconclusive results got no clear call from the source; some entries with a clear call stand among them for comparison. Calls come from the whole dose curve; as a rule, active = well fitted inhibition curve with a large enough effect; inconclusive = small, poorly fitted or top-dose-only effect; inactive = flat fitted curve, though single readings scatter. Potencies of inconclusive entries are doubtful fits and often do not repeat.
# Assay: Cytotoxic Profiling in HEK 293 Cell Line of Diverse Libraries Using Quantitative High-Throughput Screening; note: nearly all actives have a fitted effect of over 60% in size
# Conditions: HEK 293 viability, ATP luminescence (CellTiter-Glo), 48-72 h; series mostly up to 115 µM
# Method in brief: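 Read-out: CellTiter-Glo ATP luminescence. Cells: HEK 293, 250 cells/well. Exposure: 48 or 72 hr, 37 degree Celsius.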
# Potency is the fitted concentration of half-maximal effect; tags give direction and shape of the fitted curve.
row,Compound,Potency
1,COc1cccc(-c2cccc(C(=O)N3CCCC3C(=O)NCc3ccc(C(F)(F)F)cc3)c2)c1 (stereo unspecified),"inconclusive: 50.1 µM [inhibitor, partial curve, poor fit]"
2,O=C(NC1CCCCCCC1)c1ccc(Cn2ccn3nc4c(c3c2=O)CCCC4)cc1,active: 31.6 µM
3,CC(C)C(=O)N1Cc2ccccc2OC2(CCN(C(C)C)CC2)C1,inactive
4,CN(C)Cc1cn2c(=O)n(C)cc(-c3cccc(OC(F)(F)F)c3)c2n1,"inconclusive: 112 µM [inhibitor, single point]"
5,CC(=O)N1CCN(C2CCOC3(CCN(S(=O)(=O)c4ccccc4)CC3)C2)CC1 (stereo unspecified),"inconclusive: 79.4 µM [inhibitor, partial curve, poor fit]"
6,Cc1nnc([C@@H]2CC(F)(F)CN2)o1,inactive
7,O=C(c1ccc[nH]1)N1CCC(n2cc(-c3nc(C4CC4)no3)nn2)C1 (stereo unspecified),inactive
8,O=C(Nc1ccccc1)N1CCc2nc(C3CC3)nc(-c3ccc(Cl)cc3)c2C1,"inconclusive: 79.4 µM [inhibitor, partial curve, poor fit]"
9,O=[S+]([O-])(c1cccc(C(F)(F)F)c1)N1CCN(Cc2ccccc2-c2ccccc2F)CC1,"inconclusive: 28.2 µM [inhibitor, full curve, poor fit]"
10,Fc1ccc(-c2cc(CC3(NCc4ccc(OC(F)(F)F)cc4)COC3)no2)cc1,active: 79.4 µM
11,COCCn1cc2c3c(cccc31)CN(C(=O)c1cc(F)ccc1Cl)CC2,"inconclusive: 79.4 µM [inhibitor, single point]"
12,CCC(C)NC(=O)C1CCCN1C(=O)c1cccc(-c2ccccn2)c1 (stereo unspecified),inactive
13,CSc1ccc(-c2cccc(CN3CCC(NC(=O)Nc4ccccc4)CC3)c2)cc1,"inconclusive: 20 µM [inhibitor, full curve, poor fit]"
14,O=C(CC1CCCC1)NC1CCN(C(=O)N2CC3CC(C2)[C@H]2CCCC(=O)N2C3)CC1 (stereo partly specified),inactive
15,CCN(Cc1cnn(CC)c1)C(=O)C1CCN(C(=O)N2CC3CC(C2)[C@H]2CCCC(=O)N2C3)CC1 (stereo partly specified),inactive
16,CN(C)C[C@@H]1CN(Cc2ccncc2)C[C@H]1NC(=O)c1ccc(Cl)cc1,active: 39.8 µM
17,C[C@@]12CCC(=O)C[C@@H]1C[C@H](OC(=O)Nc1ccccc1)CC2,"inconclusive: 56.2 µM [inhibitor, partial curve, poor fit]"
18,CCc1ccc(NC(=O)c2ccc3c(c2)N(C)C2CCCCCN2C3=O)cc1 (stereo unspecified),"inconclusive: 17.8 µM [inhibitor, full curve, poor fit]"
19,Cc1cc(S(=O)(=O)N2CCC3(CCC(=O)N(Cc4ccccc4)CC3)CC2)ccc1F,"inconclusive: 50.1 µM [inhibitor, partial curve, poor fit]"
20,CC(C)(Oc1ccccc1)C(=O)N1CCC2(CC1)CNC(C(=O)O)C2 (stereo unspecified),inactive
21,COc1ccccc1/C=C/CN1CC[C@@H](c2ccc3c(c2)OCO3)[C@H](O)C1,"inconclusive: 89.1 µM [inhibitor, single point]"
22,COc1cccc(CN2Cc3cc(NC(=O)c4cccc(F)c4)ccc3OC(C)C2=O)c1OC (stereo unspecified),"inconclusive: 89.1 µM [inhibitor, single point]"

row,Compound,Potency
1,COCC(=O)N1CCN(C(=O)c2nc3cccnc3n(Cc3ccc(OC)cc3)c2=O)CC1,inactive
2,COc1ccccc1C(=O)NCc1nnc2cc(-c3nc(C4CC4)no3)ccn12,"inconclusive: 10 µM [inhibitor, full curve, poor fit]"
3,CSc1cccc(NC(=O)Cn2nc3c(cc2=O)CCCCC3)c1,"inconclusive: 89.1 µM [inhibitor, single point]"
4,CC(C)OCCCNC(=O)CCC1CCN(C(=O)c2ccccc2)CC1,inactive
5,COCC1CCCN(C(=O)c2cc(Cn3c(C)nc4ccccc43)[nH]n2)C1 (stereo unspecified),inactive
6,O=S(=O)(c1ccccc1F)N1CCC(OCc2noc(C3CCCO3)n2)CC1 (stereo unspecified),"inconclusive: 56.2 µM [inhibitor, partial curve, poor fit]"
7,CO[C@H]1C(=O)N(C(C)C)[C@H]1C1CCN(C(=O)Nc2ccc(C)c(C)c2)CC1,"inconclusive: 89.1 µM [inhibitor, single point]"
8,O=C(Nc1ccc2c(c1)OCCO2)C1CCN(C(=O)N2CC3CC(C2)[C@H]2CCCC(=O)N2C3)CC1 (stereo partly specified),inactive
9,COc1ccc(CNC(=O)c2cc(-c3ccccc3C(F)(F)F)nc3c2cnn3C)cc1,"inconclusive: 25.1 µM [inhibitor, full curve]"
10,COc1cc(OC)cc(-c2onc(C)c2C(=O)NCCC(c2ccccc2)c2ccccc2)c1,active: 39.8 µM
11,COCC(=O)NC1CCC12CCN(C(=O)Cc1cccc(F)c1)CC2 (stereo unspecified),"inconclusive: 31.6 µM [inhibitor, partial curve]"
12,O=C(NC1CCN(Cc2ccccc2)CC1)c1cccc2c1CCN2C(=O)c1ccccc1,active: 39.8 µM
13,OC1(c2csc(CN3CCc4ccccc4C3)n2)CCN(C2CCOCC2)CC1,"inconclusive: 100 µM [inhibitor, partial curve]"
14,CCOC(=O)C1CCN(C(=O)Cc2cccn2-c2ccc(F)cc2)CC1,"inconclusive: 79.4 µM [inhibitor, partial curve, poor fit]"
15,CC(=O)c1ccc(NC(=O)N[C@H]2CO[C@H]3[C@@H]2OC[C@@H]3n2nnnc2Oc2cccc(N(C)C)c2)cc1,"inconclusive: 50.1 µM [inhibitor, partial curve, poor fit]"
16,CNC(=O)c1cc(C2CC2)nc2onc(C3CCCN3[S+](=O)([O-])c3cccc(C(F)(F)F)c3)c12 (stereo unspecified),"inconclusive: 89.1 µM [inhibitor, single point]"
17,CN1C(=O)C2(CCN(C(=O)C3(c4ccccc4)CC3)CC2)c2ccccc21,"inconclusive: 56.2 µM [inhibitor, partial curve, poor fit]"
18,CNC(C)c1ccccc1OC (stereo unspecified),inactive
19,CC1(C)[C@H](Cc2cc(COc3ccccc3)on2)C[C@@H]1NC1CCOCC1,"inconclusive: 50.1 µM [inhibitor, partial curve, poor fit]"
20,O=C(C1CCCN1c1nccc(Nc2ccccc2F)n1)N1CCCC1 (stereo unspecified),inactive
21,CC(=O)N1CCN(Cc2ccccc2-c2cccnc2)CC1,inactive
22,COc1ccc(S(=O)(=O)N2CCc3c(C(=O)NC4CCCC4)cccc32)cc1,"inconclusive: 50.1 µM [inhibitor, partial curve, poor fit]"

row,Compound,Potency
1,COC(=O)c1sccc1NC(=O)N1CCCC1c1noc(COc2ccc(F)cc2)n1 (stereo unspecified),"inconclusive: 50.1 µM [inhibitor, partial curve, poor fit]"
2,Cc1cccc(-c2cccc(NC(=O)C3CCCN(C(=O)c4cccc(C)n4)C3)c2)c1 (stereo unspecified),"inconclusive: 10 µM [inhibitor, full curve, poor fit]"
3,O=S(=O)(c1ccc(-n2cccn2)cc1)N1CCCC2(CCNC2)C1 (stereo unspecified),"inconclusive: 100 µM [inhibitor, single point]"
4,O=C(NC1CCc2ccccc21)c1cc(COc2ccc3c(c2)OCO3)[nH]n1 (stereo unspecified),"inconclusive: 89.1 µM [inhibitor, single point]"
5,CCn1ncc(N2CCCC(CC(=O)N3CCN(c4cccc(Cl)c4)CC3)C2)cc1=O (stereo unspecified),active: 35.5 µM
6,Cc1noc(C)c1S(=O)(=O)N(C)C1CCc2nn(CC3CC3)c(=O)n2CC1 (stereo unspecified),inactive
7,CCCc1ccc(-c2nc(C3CCOC3)no2)cc1 (stereo unspecified),"inconclusive: 50.1 µM [inhibitor, partial curve, poor fit]"
8,C=CCn1cc2c3c(cccc31)[C@H](CC(C)C)N[C@H](C(=O)NCCCN1CCCC1=O)C2,active: 39.8 µM
9,O=C(NCc1ccccn1)C1CCCCN1Cc1ccc(-c2ccsc2)cc1 (stereo unspecified),active: 39.8 µM
10,Cc1cn2nc(C(=O)NCc3ccc4c(c3)OCO4)cc2c(N2CCCC2)n1,inactive
11,O=C(C1CCCC1)N1C[C@@H](COc2ccncc2)[C@H](c2ccccn2)C1,inactive
12,CC(C)NC(=O)C1COC2(CCN(C(=O)c3cccc([N+](=O)[O-])c3)CC2)N1C(=O)c1ccccc1 (stereo unspecified),"inconclusive: 79.4 µM [inhibitor, partial curve, poor fit]"
13,COc1ccc(-c2cc(N3CCN(C(=O)c4ccc(OC)cc4OC)CC3)n[nH]2)cc1,"inconclusive: 44.7 µM [inhibitor, partial curve, poor fit]"
14,CN(CC#N)C(=O)c1cc(-c2ccc(F)cc2)nc2c1cnn2C,"inconclusive: 126 µM [inhibitor, single point]"
15,NCCCN1C(=O)CC[C@H]2CN(C(=O)CN3CCNC(=O)C3)CC[C@H]21,inactive
16,COCCN[C@@H]1C[C@@H]2c3[nH]c4ccccc4c3C[C@@H](C(=O)OC)N2[C@H](c2ccc(F)c(F)c2)C1,active: 22.4 µM
17,OCc1ccc(-c2cc(-c3ccncc3)c3cncn3c2)cc1,"inconclusive: 79.4 µM [inhibitor, partial curve]"
18,CCCCn1c(=O)c(C(=O)NCC(=O)OC)nc2cccnc21,inactive
19,COc1ccc(NC(=O)c2ccc3c(c2)N(C)C2CCCCCN2C3=O)c(OC)c1 (stereo unspecified),"inconclusive: 79.4 µM [inhibitor, partial curve, poor fit]"
20,CC(C)CNC(=O)N1CCC(N2C(=O)C3(CCCCC3)C2c2ccncc2)CC1 (stereo unspecified),inactive
21,Fc1cccc(-c2cnc(Nc3cncnc3)c3c2CCO3)c1,"inconclusive: 31.6 µM [inhibitor, full curve]"
22,COc1cc(NC(=O)N[C@H]2CO[C@H]3[C@@H]2OC[C@@H]3Nc2nccc(-c3ccc(N(C)C)cc3)n2)cc(OC)c1,"inconclusive: 17.8 µM [inhibitor, full curve, poor fit]"
